{
  "source": "PubChem BioAssay AID686979",
  "about": "(National Center for Advancing Translational Sciences (NCATS), 2013)",
  "note": "Screen size: about 420,000 compounds; about 50,000 (12%) were called active. This list was built around the results that the source calls inconclusive (neither active nor inactive); the mix of calls is not that of the screen. Calls follow the shape of the dose curve; as a rule, active = well fitted inhibition curve with a large enough effect; inconclusive = small, poorly fitted or top-dose-only effect; inactive = flat fitted curve, though single readings scatter. Potencies of inconclusive entries are left out as doubtful fits. Potency is read from the fitted curve at half-maximal effect; tags tell the direction and shape of the fitted curve.",
  "data": [
    {"assay": "qHTS for Inhibitors of human tyrosyl-DNA phosphodiesterase 1 (TDP1): qHTS in cells in presence of CPT; also: nearly all actives have a fitted effect of over 55% in size", "settings": "chicken DT40 Tdp1-/-;hTDP1 cells + 20 nM CPT, ATP luminescence, 48 h; series mostly up to 46.2 µM", "summary_of_the_method": "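Chicken DT40 Tdp1-/- cells complemented with human TDP1, 400 cells/well, exposed to compounds plus 20 nM camptothecin for at least 48 h at 37 C; viability read as ATP content by CellTiter-Glo luminescence.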", "values": [
      {"smiles": "Cc1nc(Nc2ccc(C(=O)O)cc2)sc1-c1ccccc1", "Potency": "inactive"},
      {"smiles": "CSc1ncccc1C(=O)N1CCCC(C(=O)c2ccc3ccccc3c2)C1", "note": "(stereo not drawn)", "Potency": "inconclusive [inhibitor, single point]"},
      {"smiles": "O=C(NC1CCCCC1)c1cccc2c1C(=O)c1ccc(N3CCC(Cc4ccccc4)CC3)cc1S2(=O)=O", "Potency": "inconclusive [inhibitor, partial curve]"},
      {"smiles": "O=C(O)C(SC(C(=O)O)c1ccccc1)c1ccccc1", "note": "(stereo not drawn)", "Potency": "inconclusive [inhibitor, single point]"},
      {"smiles": "COc1ccc(/C=N/NC(=O)CNC(=O)c2ccc(S(=O)(=O)N3CCCC3)cc2)c(OC)c1", "Potency": "inactive"},
      {"smiles": "Fc1ccc(NC(=S)Nc2ccc(Cl)cc2)cc1", "Potency": "inconclusive [inhibitor, single point]"},
      {"smiles": "CCOC(=O)c1cccc(NC(=O)N2CCC(CN3CCc4ccccc4C3)CC2)c1", "Potency": "inconclusive [inhibitor, single point]"},
      {"smiles": "CCN(CC(=O)Nc1ccc(NC(C)=O)cc1)C(=O)CCCOc1ccc(C(C)(C)C)cc1", "Potency": "active: 18.4 µM"},
      {"smiles": "CC(NS(=O)(=O)OCC(Cl)(Cl)Cl)c1ccc(Br)cc1", "note": "(stereo not drawn)", "Potency": "inactive"},
      {"smiles": "O=C(Cn1nc(C(F)F)cc1C(F)F)NNC(=S)Nc1ccc(F)cc1", "Potency": "inactive"},
      {"smiles": "C=CCNC(=O)/C=C/c1ccc(C(C)C)cc1", "Potency": "inconclusive [inhibitor, single point]"},
      {"smiles": "FC(F)(F)c1cccc(N2CCN(Cc3nnc(-c4ccc5c(c4)OCO5)o3)CC2)c1", "Potency": "inconclusive [inhibitor, single point]"},
      {"smiles": "Cc1ccc(OCCn2c(C3CC(=O)N(Cc4ccccc4)C3)nc3ccccc32)cc1", "note": "(stereo not drawn)", "Potency": "inconclusive [inhibitor, single point]"},
      {"smiles": "O=C(O)CSc1ncnc2scc(-c3ccccc3)c12", "Potency": "inactive"},
      {"smiles": "O=C(Cc1ccc(F)cc1)NCc1nc2cccnc2n1Cc1ccc(F)cc1", "Potency": "inconclusive [inhibitor, single point]"},
      {"smiles": "CN(C(=O)c1cc2ccccc2cc1O)C1CCCCC1", "Potency": "inconclusive [inhibitor, partial curve]"},
      {"smiles": "COc1ccc(Cc2nnc(Nc3ccc(C)cc3C)[nH]c2=O)cc1", "Potency": "inconclusive [inhibitor, single point]"},
      {"smiles": "C=CCNC(=O)CSc1nnc(C(CC)N(C)C)n1C1CCCCC1", "note": "(stereo not drawn)", "Potency": "inactive"},
      {"smiles": "O=[N+]([O-])c1cccc2c3c([nH]c12)CCCC3", "Potency": "inactive"},
      {"smiles": "N#CC(c1ccc(Cl)cc1)c1ccc(Cl)nn1", "note": "(stereo not drawn)", "Potency": "inactive"},
      {"smiles": "Cc1ccccc1C(=O)Nc1ccc2nc(Nc3cccc(C(F)(F)F)c3)cc(C)c2c1", "Potency": "active: 20.6 µM"},
      {"smiles": "CC(C)c1ccc(NC2=CC(=O)CC(C)(C)C2)cc1", "Potency": "inactive"},
      {"smiles": "CCc1nnc(NC(=O)CSc2nnc(COc3ccc(C)cc3)n2-c2ccccc2)s1", "Potency": "inconclusive [inhibitor, single point]"},
      {"smiles": "CSc1nnc(C)c(=O)n1COC(=O)c1ccc(S(=O)(=O)N2CCCC2)cc1", "Potency": "inconclusive [inhibitor, single point]"},
      {"smiles": "Cc1nnc(SCC(=O)NC2CCCCC2)n1C1CCCCC1", "Potency": "inactive"},
      {"smiles": "CC1CC(C(=O)Nc2ccccc2)C(=O)O1", "note": "(stereo not drawn)", "Potency": "inactive"},
      {"smiles": "COc1cccc(CNCCc2c[nH]c3ccccc23)c1OCc1ccccc1", "Potency": "active: 7.31 µM"},
      {"smiles": "Cc1ccc(N=Cc2cc3c(cc2[N+](=O)[O-])OCO3)cc1[N+](=O)[O-]", "Potency": "inconclusive [inhibitor, single point]"},
      {"smiles": "CCCCNS(=O)(=O)CCNCc1ccccc1OC", "Potency": "inactive"},
      {"smiles": "CCOc1cc(N2CCOCC2)c(OCC)cc1NC(=O)Cc1ccc(OC)c(OC)c1", "Potency": "inconclusive [inhibitor, partial curve, poor fit]"},
      {"smiles": "CC(C)c1ccc(NC(=O)Cn2cccc2C2=NC(c3ccccc3)CO2)cc1", "note": "(stereo not drawn)", "Potency": "inconclusive [inhibitor, single point]"},
      {"smiles": "CCOC(=O)c1cccc(NC(=O)N2CC(CC)Sc3ccccc32)c1", "note": "(stereo not drawn)", "Potency": "inconclusive [inhibitor, single point]"},
      {"smiles": "Cc1nn(C(C)C(=O)O)c(=O)c2ccccc12", "note": "(stereo not drawn)", "Potency": "inactive"},
      {"smiles": "Cc1cc2c3c([nH]c2cc1S(=O)(=O)NCCCOC(C)C)CC(C)(C)CC3=O", "Potency": "inconclusive [inhibitor, single point]"},
      {"smiles": "CC(C)(C)C1CCc2c(sc(NC(=O)CCC(=O)O)c2C(=O)Nc2ccccc2C(F)(F)F)C1", "note": "(stereo not drawn)", "Potency": "active: 16.4 µM"},
      {"smiles": "CCCc1cc(=O)oc2cc(C)c3c(-c4cccc(OC)c4)coc3c12", "Potency": "inactive"},
      {"smiles": "O=C(Nc1cccc(-c2nc3ccccc3s2)c1)C1=COCCO1", "Potency": "inconclusive [inhibitor, single point]"},
      {"smiles": "NS(=O)(=O)c1ccc(CCNC(=O)c2ccc3nc(Cc4ccccc4)oc3c2)cc1", "Potency": "inconclusive [inhibitor, single point]"},
      {"smiles": "COc1ccc(Oc2ncc3nc(-c4ccc(F)cc4)c(=O)n(CCC#N)c3n2)cc1", "Potency": "inactive"},
      {"smiles": "COC(=O)c1cccc(Nc2c3c(nc4ccccc24)CCC3)c1", "Potency": "active: 7.31 µM"},
      {"smiles": "COc1ccc(-c2noc(CSc3nnc(Cc4ccccc4)n3-c3ccc(Cl)cc3)n2)cc1", "Potency": "inconclusive [inhibitor, single point]"},
      {"smiles": "Cn1c(C(=O)NCCN2CCc3ccccc3C2)cc2c(=O)[nH]c3ccccc3c21", "Potency": "inconclusive [inhibitor, single point]"},
      {"smiles": "Cn1cc(S(=O)(=O)Nc2ccc(Cl)cc2Cl)c(=O)n(C)c1=O", "Potency": "active: 20.6 µM"},
      {"smiles": "CCN1CCN(c2nc3c(c(=O)[nH]c(=O)n3C)n2CCSc2nc3ccccc3s2)CC1", "Potency": "inconclusive [inhibitor, single point]"},
      {"smiles": "COc1cccc(CNC(=O)c2ccc(-c3nc(CS(=O)(=O)c4ccccc4)c(C)o3)cc2)c1", "Potency": "inconclusive [inhibitor, single point]"},
      {"smiles": "O=C(O)CN(C1CCCCC1)S(=O)(=O)c1ccc(F)cc1", "Potency": "inactive"},
      {"smiles": "COc1cc(C(=S)N(C)C)ccc1O", "Potency": "inconclusive [inhibitor, single point]"},
      {"smiles": "CCn1c(N2CCN(CC(=O)c3c(C)n(C)c4ccc(OC)cc34)CC2)nc2c1c(=O)[nH]c(=O)n2C", "Potency": "inconclusive [inhibitor, single point]"}
    ]}
  ]
}
